Laboratory results taken from PubChem BioAssay AID588855 (National Center for Advancing Translational Sciences (NCATS), 2011).
Screen size: about 410,000 compounds; about 5,000 (1.2%) were called active. The inconclusive results got no clear call from the source; some entries with a clear call stand among them for comparison. Calls come from the whole dose curve; as a rule, active = well fitted inhibition curve with a large enough effect; inconclusive = small, poorly fitted or top-dose-only effect; inactive = no such curve, though single readings can be large or run the other way. Where the call is inconclusive, the potency comes from a doubtful curve fit.

Experiment: qHTS for Inhibitors of TGF-b; note: nearly all actives have a fitted effect of over 65% in size
Settings: HepG2 CAGA-GFP TGF-b/SMAD3 reporter, GFP fluorescence, 18 h, TGF-beta stimulated, 500 pg/mL final; series mostly up to 46.1 µM
Procedure, shortened: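 First, reporter cells (HEPG2 CAGA-GFP) rested 2 h at 37 degrees C. Next, compounds were pinned in and TGF-beta added to 500 pg/mL final. After 18 h, GFP was imaged per cell and summed per well.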
Potency is the fitted concentration of half-maximal effect; tags give direction and shape of the fitted curve.

Row | SMILES | Potency
1 | COc1ccc2[nH]c3c(c2c1)CCN1C(=O)N([C@@H](C)C(=O)NCCc2ccc(F)cc2)C(=O)[C@]31C | inconclusive: 35.5 µM [inhibitor, partial curve, poor fit]
2 | O=C(Nc1ccc(N2CCCCC2)cc1)c1ccc2ccccc2n1 | inconclusive: 3.55 µM [inhibitor, full curve]
3 | COc1cc(CNC(=O)c2ccc3nc(Cc4ccccc4)oc3c2)cc(OC)c1OC | inconclusive: 14.1 µM [inhibitor, single point]
4 | Cc1ccc(C(=O)N2CCN(CCNC(=O)C(=O)Nc3ccc(Cl)cc3)CC2)cc1 | inconclusive: 3.16 µM [inhibitor, partial curve, poor fit]
5 | O=C(Nc1ccc(Oc2cccnc2)cc1)C1CCN(Cc2ccc(F)cc2)CC1 | inconclusive: 0.1 µM [inhibitor, full curve, poor fit]
6 | CCN(c1ccccc1C)S(=O)(=O)c1nnc(NC(=O)c2ccccc2C)s1 | inconclusive: 35.5 µM [inhibitor, single point]
7 | CC1CC(C)CN(C(=O)c2cccc(S(=O)(=O)N3c4ccccc4CC3C)c2)C1 (stereo not given) | inconclusive: 20 µM [inhibitor, partial curve, poor fit]
8 | O=[N+]([O-])c1cccc(-c2c(-c3ccccc3)ncc3cc(F)ccc23)c1 | inconclusive: 12.6 µM [inhibitor, single point]
9 | Cc1cc(-c2nnc(-c3ccccc3)c(-c3ccccc3)n2)c(C)o1 | inactive
10 | CC(C)Cn1c(N)c(C(=O)COC(=O)c2ccc([N+](=O)[O-])o2)c(=O)n(C)c1=O | inconclusive: 35.5 µM [inhibitor, single point]
11 | CCCCc1ccc(S(=O)(=O)NCCc2ccncc2)cc1 | inconclusive: 0.447 µM [inhibitor, full curve, poor fit]
12 | Cc1nc2cc(NC(=O)NCc3ccco3)ccc2o1 | inconclusive: 20 µM [inhibitor, single point]
13 | CCCN(CCC)c1nc(-c2ccccn2)nc2ccccc12 | inconclusive: 17.8 µM [inhibitor, partial curve, poor fit]
14 | O=C1CC(c2c(F)cccc2Cl)c2c(ccc3ccccc23)N1 (stereo not given) | inconclusive: 25.1 µM [inhibitor, partial curve, poor fit]
15 | Cc1cc(S(=O)(=O)N(Cc2ccc(C(C)C)cc2)CC2CCCO2)ccc1-n1cnnn1 (stereo not given) | inconclusive: 22.4 µM [inhibitor, single point]
16 | Cc1ccc(S(=O)(=O)NC(CC(C)C)C(=O)N2CCN(C/C=C/c3ccccc3)CC2)cc1 (stereo not given) | inconclusive: 14.1 µM [inhibitor, single point]
17 | O=C(CCn1nc(-c2ccccc2)c2ccccc2c1=O)N1CCN(c2ccccc2)CC1 | inactive
18 | Cc1ccc(NS(=O)(=O)c2ccc(C(C)C)cc2)cc1S(=O)(=O)N1CCOCC1 | inconclusive: 14.1 µM [inhibitor, single point]
19 | CCC/C=C1\CCCOC(C(=O)NCc2ccc(C)o2)(C(F)(F)F)C1 (stereo not given) | inconclusive: 35.5 µM [inhibitor, single point]
20 | O=S(=O)(c1ccc(SCc2cccc(Cl)c2)nc1)N1CCCC1 | inconclusive: 35.5 µM [inhibitor, single point]

Row | SMILES | Potency
21 | Cc1ccc2nc(N3C(=O)C(O)=C(C(=O)c4ccc(C)o4)C3c3ccc(O)cc3)sc2c1 (stereo not given) | inactive
22 | O=C1C=C(C#Cc2ccc(Oc3ccccc3)cc2)C[C@@H](c2ccc(F)cc2)C1 | inconclusive: 25.1 µM [inhibitor, single point]
23 | COc1ccc(CNC(=O)Cc2coc3ccc(C)cc23)cc1 | inactive
24 | O=C(CCS(=O)(=O)c1nc(-c2ccc3c(c2)OCO3)cc(C(F)(F)F)n1)Nc1ccc(Br)cc1 | inconclusive: 15.8 µM [inhibitor, partial curve, poor fit]
25 | Cc1cc(C)cc(NC(=O)COC(=O)Cn2cnc3c2c(=O)n(C)c(=O)n3C)c1 | inactive
26 | CCOC(=O)c1c(C)[nH]c(C(=O)OCC(O)=C(C#N)c2nc3ccccc3[nH]2)c1C | inconclusive: 25.1 µM [inhibitor, single point]
27 | COc1ccc(N2CCN(c3nc4ccc(C(=O)c5ccccc5)cc4n4cnnc34)CC2)cc1 | inactive
28 | NC(=O)CSc1nc(C23CC4CC(CC(C4)C2)C3)nc2ccccc12 | inactive
29 | Cc1ccc(-c2nn(CCC#N)cc2C=C(C#N)C#N)cc1 | inconclusive: 35.5 µM [inhibitor, single point]
30 | COc1cc(C(=O)Oc2cccc(/C=N/NC(=O)c3cc(C)[nH]n3)c2)cc(OC)c1OC | inactive
31 | COc1ccc2[nH]c(C(=O)O)c(CCNC(=O)/C=C/c3ccc(O)c(OC)c3)c2c1 | inactive
32 | NC(=O)c1ccccc1NC(=O)CS(=O)(=O)Cc1ccccc1 | inconclusive: 35.5 µM [inhibitor, partial curve, poor fit]
33 | CCOc1ccc(C(=O)/C=C/c2cn(CC(O)CN3CCc4ccccc43)c3ccccc23)cc1 (stereo not given) | inconclusive: 14.1 µM [inhibitor, partial curve, poor fit]
34 | Cc1ccc(CN2CCN(Cc3cn[nH]c3-c3cccc(F)c3)CC2CCO)o1 (stereo not given) | inconclusive: 3.55 µM [inhibitor, single point]
35 | CCc1nn(CC(=O)NCc2ccc(C)cc2)c(=O)c2cc3occc3n12 | inconclusive: 11.2 µM [inhibitor, partial curve, poor fit]
36 | Cc1ccc(NC(=O)C2(C)CCN2C(=O)CC(c2ccccc2)c2ccccc2)cc1 (stereo not given) | inconclusive: 11.2 µM [inhibitor, partial curve]
37 | CCN(CC)S(=O)(=O)c1ccc(C)c(NC(=O)CSc2ncc(C(F)(F)F)cc2Cl)c1 | inconclusive: 5.62 µM [inhibitor, single point]
38 | CCOc1ccc(-n2c(Cc3cc(=O)[nH]c(=O)[nH]3)nnc2SCC(=O)OC)cc1 | inconclusive: 5.62 µM [inhibitor, single point]
39 | c1ccc2c(c1)CCCc1cc(NCCN3CCOCC3)nnc1-2 | inactive
40 | CS(=O)(=O)c1ccc(Cl)c(NC(=O)c2cccc(-n3cnnn3)c2)c1 | inactive
